Values joined by “and” are separate entries in the source; they are usually repeats but may differ in a detail not shown here. Identical values can stand only once. Among all 420,000 compounds or so, about 75 (0.02%) were called active. Inconclusive means that the source gave no clear call. Such entries were picked first, then a sample of the others. Calls come from the whole dose curve; as a rule, active = well fitted activation curve with a large enough effect; inconclusive = small, poorly fitted or top-dose-only effect; inactive = no such curve, though single readings can be large or run the other way. Potencies beside an inconclusive call are fits to weak or partial responses and may not hold up.
Experiment: qHTS for Inducers of the Endoplasmic Reticulum Stress Response (ERSR) in Human Glioma: qHTS; note: nearly all actives have a fitted effect of over 35% in size; for activation: % of control where 0% means no effect
Settings: U87-MG GRP78 promoter luciferase reporter, 16 h; activation: hits give high values
How it was run: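 Stably transfected U87-MG glioma cells carrying a GRP78-based luciferase sensor; 16 h compound incubation. Luminescence end-point read 10 min after Bright-Glo addition at room temperature.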
Potency is the fitted concentration of half-maximal effect; tags give direction and shape of the fitted curve.

Compound | Potency | activation
COc1ccc(C2SCCN2C(=S)Nc2cccc(Cl)c2)cc1 (stereo not drawn) | inconclusive: 50.1 µM [activator, single point] | –
Cc1ccc(-c2nc(C)c(CCNS(=O)(=O)c3ccc(F)c(C(F)(F)F)c3)s2)cc1 | inconclusive: 50.1 µM [activator, single point] | –
Cc1cnc(=O)[nH]c1SCc1ccc(C(F)(F)F)cc1 | inconclusive: 50.1 µM [activator, single point] | –
O=C(/C=C/c1ccc2c(c1)OCO2)c1ccccn1 | inconclusive: 50.1 µM [activator, partial curve, poor fit] | –
NC1=NC(=Nc2ccc(Cl)cc2)c2ccccc21 | – | inactive: 4.36%
COc1ccc2c(c1)c1c(c(=O)n(-c3ccc(F)c(Cl)c3)c(=O)n1Cc1ccccc1C)n2C | – | inactive: -1.42%
Cc1nn(-c2ccccc2)c(Cl)c1/C=C/C(=O)c1ccccc1 | inconclusive: 12.6 µM [activator, single point] | –
COc1ccccc1-c1nc(N(C)C)c2ccccc2n1 | – | inactive: 1.66%
Oc1ccc(F)cc1-c1cc(-c2ccc3c(c2)OCCO3)n[nH]1 | inconclusive: 56.2 µM [activator, partial curve, poor fit] | –
COc1cc(C(=O)Nc2ccc(S(=O)(=O)Nc3cc(C)on3)cc2)cc(OC)c1OC | inconclusive: 50.1 µM [activator, single point] | –
Cc1ccccc1CSCC(=O)N/N=C/c1cccs1 | inconclusive: 14.1 µM [activator, full curve] | –
O=CC1=C(N2CCOCC2)/C(=C/c2ccc(Cl)cc2)CC1 | inconclusive: 10 µM [activator, full curve, poor fit] | –
CCOC(=O)COn1c(=O)c(-c2cccs2)[n+]([O-])c2ccccc21 | inconclusive: 39.8 µM [activator, partial curve, poor fit] | –
CCCCSc1nsc(NC(C)=O)n1 | inconclusive: 1.78 µM [activator, partial curve, poor fit] | –
CCn1ccnc1CN(C)Cc1nc(-c2cccc(Cl)c2)no1 | inconclusive: 44.7 µM [activator, partial curve, poor fit] | –
COC(=O)c1ccc(NC(=O)Nc2ccc3c(c2)OCO3)cc1 | inconclusive: 25.1 µM [activator, full curve, poor fit] | –
Cn1c(=O)c2cc(S(=O)(=O)NC(C(=O)Nc3cccnc3)c3ccccc3)ccc2n(C)c1=O (stereo not drawn) | – | inactive: -1.11%
CC(=O)Nc1cccc(O)c1 | inconclusive: 10 µM [activator, partial curve, poor fit] | –
CCOC(=O)C1=C(O)C(=O)N(Cc2ccccc2)C1 | inconclusive: 50.1 µM [activator, single point] | –
Cc1cc2c(cc1C)N1C(=O)c3cc4ccccc4cc3NC(=O)C1C(=O)N2 (stereo not drawn) | inconclusive: 20 µM [activator, single point] | –
Cc1cc(C)nc(/N=C2\NC(=O)CC(C(=O)O)N2c2ccc(C)c(C)c2)n1 (stereo not drawn) | – | inactive: -0.801%
Cc1ccc(SCCC(=O)N2CCOCC2)cc1 | inconclusive: 17.8 µM [activator, single point] | –
Fc1cc(F)c2nc(Nc3nc4cc5c(cc4s3)OCO5)sc2c1 | inconclusive: 10 µM [activator, single point] | –

Compound | Potency | activation
CC(=O)c1ccc(OCC(O)CN2CC(C)OC(C)C2)cc1 (stereo not drawn) | – | inactive: -7.38%
CCc1ccc(OCc2ccc(C(=O)NCc3ccccn3)o2)cc1 | inconclusive: 10 µM [activator, partial curve, poor fit] | –
O=C(O)c1cc(-c2ccc(/C=C3\NC(=O)N(c4ccccc4)C3=O)o2)ccc1Cl | – | inactive: -0.0918%
Cc1ccc(CS/C(Nc2ccccc2C)=C(\C#N)C(=O)NCc2ccco2)c(C)c1 | – | inactive: -3.09%
CCN1CCc2c(OCc3ccccc3)cccc2C1=O | – | inactive: -3.99%
O=C(NCCCN1CCc2ccccc2C1)C1CCN(S(=O)(=O)N2CCC3(CC2)OCCO3)CC1 | – | inactive: -3.87%
O=C(Nc1ccccc1O)c1ccc(NS(=O)(=O)c2cccc3cccnc23)cc1 | inconclusive: 8.91 µM [activator, partial curve, poor fit] | –
COc1ccc(S(=O)(=O)c2c(Nc3cccc(Cl)c3)sc(C(=O)c3ccccc3)c2N)cc1 | inconclusive: 50.1 µM [activator, single point] | –
COc1cccc2c1C(=O)c1c(O)c3c(c(O)c1C2=O)CC(O)(C(C)=O)CC3OC1CC(O)C(O)C(C)O1 (stereo not drawn) | inconclusive: 50.1 µM [activator, single point] | –
Cc1cc2c(C)cc(=O)[nH]c2cc1NC(=O)CCl | inconclusive: 28.2 µM [activator, single point] | –
CCOC(=O)C1=C(C)OC(N)=C(C(=O)OCC)C1c1cccnc1 (stereo not drawn) | – | inactive: -6.87%
COc1cc(/C=C2/CCc3ccccc3C2=O)cc(OC)c1OC | inconclusive: 44.7 µM [activator, partial curve, poor fit] | –
Cc1occc1C(=O)N/N=C/c1ccc(N(C)C)cc1 | – | inactive: -14.8%
COCCSc1ccccc1C(=O)Nc1nccs1 | – | inactive: -3.35%
COc1ccc(-c2csc(Nc3ccc(S(N)(=O)=O)cc3)n2)cc1 | inconclusive: 15.8 µM [activator, single point] | –
CC(=O)NNC(=S)NC(=O)C(c1ccccc1)c1ccccc1 | – | inactive: -7.52%
COc1cccc2nc3c(C(=O)NCCN(C)C)cccc3cc12 | inconclusive: 12.6 µM [activator, single point] | –
Cc1cc(Br)cn2c(Cc3ccsc3)c(-c3ccccc3)nc12 | inconclusive: 44.7 µM [activator, single point] | –
O=C(c1ccco1)N1CCN(c2ccccc2F)CC1 | – | inactive: -1.05%
Nc1cccc2c(N)cccc12 | – | inactive: -0.269%
O=C(N/N=C1\CCCc2c1[nH]c1ccc(Cl)cc21)c1ccncc1 | – | inactive: 3.09%
C=C(c1ccc(C(=O)O)cc1)c1cc2c(cc1C)C(C)(C)CCC2(C)C | inconclusive: 44.7 µM [activator, partial curve] | –
CCc1ccc(NC(=O)CC2C(=O)N(c3ccc(OC)cc3)C(=O)N2Cc2ccc(OC)cc2)cc1 (stereo not drawn) | inconclusive: 14.1 µM [activator, single point] | –

Compound | Potency | activation
CC(C)(C)c1ccc(OCC(=O)NCc2ccco2)c(Br)c1 | inconclusive: 44.7 µM [activator, partial curve, poor fit] | –
COc1ccc(NC(=O)c2ccc(NC(=O)CN3CCN(c4ccc(O)cc4)CC3)cc2)cc1 | inconclusive: 50.1 µM [activator, single point] | –
Cc1ccc(C(=O)Nc2nccs2)s1 | inconclusive: 10 µM [activator, partial curve, poor fit] | –
NC(=O)c1ccc(NC(=O)C#Cc2ccccc2)cc1 | inconclusive: 10 µM [activator, partial curve, poor fit] | –
CCOC(=O)C1(Cc2cccc(OC)c2)CCCN(C(=O)CCN2CCCO2)C1 (stereo not drawn) | inconclusive: 2.24 µM [activator, partial curve, poor fit] | –
COc1cc(-c2ccc(C(F)(F)F)cn2)cc2c1OCCN(S(=O)(=O)C[C@]13CC[C@H](CC1=O)C3(C)C)C2 | – | inactive: -1.88%
CC(C)C[C@@H](CO)N(Cc1ccccc1)S(=O)(=O)N(Cc1ccccc1)[C@H](CO)CC(C)C | – | inactive: -9.86% and inactive: -6.91%
CC(NC(=O)c1ccc(=O)oc1)c1ccccc1 (stereo not drawn) | inconclusive: 28.2 µM [activator, single point] | –
O=C1CCc2ccc(OCCCCN3CCN(c4cccc(Cl)c4Cl)CC3)cc2N1 | inconclusive: 50.1 µM [activator, single point] | –
COc1ccc(-c2nc(-c3ccncc3)no2)cc1OC | inconclusive: 5.62 µM [activator, partial curve, poor fit] | –
Oc1ccc(C[C@@H]2CNC(=S)N2CCc2cc(C(F)(F)F)cc(C(F)(F)F)c2)cc1 | – | inactive: -0.886%
COc1cc(/C=N/NC(=S)NC2CC3CC2C2C=CCC32)ccc1O (stereo not drawn) | inconclusive: 3.98 µM [activator, full curve, poor fit] | –
Clc1ccc(-c2csc3ncnc(Cl)c23)cc1 | – | inactive: -5.56%
Cc1ccccc1N/C(=N/S(=O)(=O)c1cc(F)ccc1F)c1ccccc1 | inconclusive: 50.1 µM [activator, single point] | –
COc1ccc(/C(O)=C2/C(=O)C(=O)N(CCN3CCOCC3)C2c2ccccn2)cc1 (stereo not drawn) | – | inactive: 8%
O=C(CCOc1ccccc1)Nc1ccccc1 | inconclusive: 39.8 µM [activator, partial curve, poor fit] | –
CN(CC(=O)Nc1ccccc1Sc1ccccc1)Cc1nc2ccccc2c(=O)[nH]1 | inconclusive: 50.1 µM [activator, single point] | –
CCN(CC)CCNC(=O)Cc1nn(CC)c(=O)c2ccccc12 | – | inactive: -5.4%
CCC(=O)c1ccc(OCC(=O)Nc2cc(S(=O)(=O)N3CCCCC3)ccc2N2CCN(CC)CC2)cc1 | – | inactive: -3.04%
Cc1ccc(/C=C/C(=O)N2CC(C)CC(C)C2)o1 (stereo not drawn) | inconclusive: 28.2 µM [activator, single point] | –
CCOC(=O)COc1ccc2c(C)cc(=O)oc2c1C(=O)c1ccccc1 | inconclusive: 28.2 µM [activator, single point] | –
N#CCC(=O)N/N=C/c1cn(Cc2ccc3ccccc3c2)c2ccccc12 | inconclusive: 44.7 µM [activator, partial curve, poor fit] | –

Source: PubChem BioAssay AID602332 (National Center for Advancing Translational Sciences (NCATS), 2012)
